Some of the results follow. Many values rest on one well or one pass, so single values are uncertain.
How the values were obtained:
Experiment in all cases: cell count relative to DMSO control; melanoma cells; higher = more viable cells
Conditions in all cases: library dose: low library concentration; 72 h
WM115 = tested on: WM115
WM1716 = tested on: WM1716
WM1745 = tested on: WM1745
WM3526 = tested on: WM3526
WM3619 = tested on: WM3619
WM451Lu = tested on: WM451Lu
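Note: cell number obtained by counting DAPI-stained nuclei in high-throughput microscope images with image analysis software, screen run in 1,536-well plates.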

Compound: COc1cc([C@@H]2c3cc4c(cc3[C@@H](O[C@@H]3O[C@@H]5CO[C@@H](C)O[C@H]5[C@H](O)[C@H]3O)[C@H]3COC(=O)[C@H]23)OCO4)cc(OC)c1O [etoposide] + Cc1cn(-c2cc(NC(=O)c3ccc(C)c(Nc4nccc(-c5cccnc5)n4)c3)cc(C(F)(F)F)c2)cn1 [nilotinib] (first compound 0.02 µM, partner dose 0.2 µM)
- cell count (WM115): 94.7%
- cell count (WM1716): 84.7%
- cell count (WM1745): 81.2%
- cell count (WM3526): 112%
- cell count (WM3619): 86%
- cell count (WM451Lu): 88.9%

Compound: CCN(CC)CCNC(=O)c1c(C)[nH]c(/C=C2\C(=O)Nc3ccc(F)cc32)c1C [sunitinib] + Cn1c(=O)n(-c2ccc(C(C)(C)C#N)cc2)c2c3cc(-c4cnc5ccccc5c4)ccc3ncc21 [NVP-BEZ235] (first compound 0.4 µM, partner dose 0.004 µM)
- cell count (WM115): 76.6%
- cell count (WM1716): 125%
- cell count (WM1745): 86.3%
- cell count (WM3526): 71.4%
- cell count (WM3619): 130%
- cell count (WM451Lu): 99.1%

Compound: CCN(CC)CCNC(=O)c1c(C)[nH]c(/C=C2\C(=O)Nc3ccc(F)cc32)c1C [sunitinib] + CN1CCN(c2ccc3nc(-c4c(N)c5c(F)cccc5[nH]c4=O)[nH]c3c2)CC1 [Dovitinib] (first compound 0.4 µM, partner dose 0.1 µM)
- cell count (WM115): 105%
- cell count (WM1716): 149%
- cell count (WM1745): 72.4%
- cell count (WM3526): 77.6%
- cell count (WM3619): 81%
- cell count (WM451Lu): 104%

Compound: C[C@]1(O)C[C@@H](c2nc(-c3ccc4ccc(-c5ccccc5)nc4c3)c3c(N)nccn32)C1 + COc1cc2ncnc(Nc3ccc(Oc4ccccc4)cc3)c2cc1OC [SrcI1] (first compound 0.4 µM, partner dose 2 µM)
- cell count (WM115): 112%
- cell count (WM1716): 126%
- cell count (WM1745): 66.8%
- cell count (WM3526): 84%
- cell count (WM3619): 92.1%
- cell count (WM451Lu): 113%

Compound: COc1cc([C@@H]2c3cc4c(cc3[C@@H](O[C@@H]3O[C@@H]5CO[C@@H](C)O[C@H]5[C@H](O)[C@H]3O)[C@H]3COC(=O)[C@H]23)OCO4)cc(OC)c1O [etoposide] + Cn1c(=O)n(-c2ccc(C(C)(C)C#N)cc2)c2c3cc(-c4cnc5ccccc5c4)ccc3ncc21 [NVP-BEZ235] (first compound 0.02 µM, partner dose 0.004 µM)
- cell count (WM115): 89.6%
- cell count (WM1716): 83.5%
- cell count (WM1745): 91.5%
- cell count (WM3526): 93.3%
- cell count (WM3619): 78.3%
- cell count (WM451Lu): 108%

Compound: COc1cc([C@@H]2c3cc4c(cc3[C@@H](O[C@@H]3O[C@@H]5CO[C@@H](C)O[C@H]5[C@H](O)[C@H]3O)[C@H]3COC(=O)[C@H]23)OCO4)cc(OC)c1O [etoposide] + CC(=O)O[C@@]12CO[C@@H]1C[C@H](O)[C@@]1(C)C(=O)[C@H](O)C3=C(C)[C@@H](OC(=O)[C@H](O)[C@@H](NC(=O)OC(C)(C)C)c4ccccc4)C[C@@](O)([C@@H](OC(=O)c4ccccc4)[C@H]21)C3(C)C [Docetaxel] (first compound 0.02 µM, partner dose 0.0001 µM)
- cell count (WM115): 69.9%
- cell count (WM1716): 45.4%
- cell count (WM1745): 86.5%
- cell count (WM3526): 29.8%
- cell count (WM3619): 82.1%
- cell count (WM451Lu): 58.4%

Compound: C[C@]1(O)C[C@@H](c2nc(-c3ccc4ccc(-c5ccccc5)nc4c3)c3c(N)nccn32)C1 + O=S(=O)(c1ccccc1)N(CC(F)(F)F)c1ccc(C(O)(C(F)(F)F)C(F)(F)F)cc1 [T0901317] (first compound 0.4 µM, partner dose 1.4 µM)
- cell count (WM115): 106%
- cell count (WM1716): 92.8%
- cell count (WM1745): 72.1%
- cell count (WM3526): 76%
- cell count (WM3619): 103%
- cell count (WM451Lu): 83.8%

Compound: C[C@]1(O)C[C@@H](c2nc(-c3ccc4ccc(-c5ccccc5)nc4c3)c3c(N)nccn32)C1 + CCCS(=O)(=O)Nc1ccc(F)c(C(=O)c2c[nH]c3ncc(Cl)cc23)c1F [PLX4720] (first compound 0.4 µM, partner dose 0.08 µM)
- cell count (WM115): 104%
- cell count (WM1716): 117%
- cell count (WM1745): 69.5%
- cell count (WM3526): 84%
- cell count (WM3619): 76.3%
- cell count (WM451Lu): 122%

Compound: C[C@]1(O)C[C@@H](c2nc(-c3ccc4ccc(-c5ccccc5)nc4c3)c3c(N)nccn32)C1 + COc1cc2c(Oc3ccc4[nH]c(C)cc4c3F)ncnc2cc1OCCCN1CCCC1 [cediranib] (first compound 0.4 µM, partner dose 0.4 µM)
- cell count (WM115): 115%
- cell count (WM1716): 119%
- cell count (WM1745): 74.9%
- cell count (WM3526): 111%
- cell count (WM3619): 113%
- cell count (WM451Lu): 54.4%

Compound: CCN(CC)CCNC(=O)c1c(C)[nH]c(/C=C2\C(=O)Nc3ccc(F)cc32)c1C [sunitinib] + O=C(CCCCCCC(=O)Nc1ccccc1)NO [vorinostat] (first compound 0.4 µM, partner dose 0.08 µM)
- cell count (WM115): 98.5%
- cell count (WM1716): 140%
- cell count (WM1745): 84.1%
- cell count (WM3526): 76.4%
- cell count (WM3619): 126%
- cell count (WM451Lu): 116%

Compound: COc1cc([C@@H]2c3cc4c(cc3[C@@H](O[C@@H]3O[C@@H]5CO[C@@H](C)O[C@H]5[C@H](O)[C@H]3O)[C@H]3COC(=O)[C@H]23)OCO4)cc(OC)c1O [etoposide] + O=c1cc(-c2cccc3c2Sc2ccccc2S3)oc(N2CCOCC2)c1 [KU55933] (first compound 0.02 µM, partner dose 1 µM)
- cell count (WM115): 89.7%
- cell count (WM1716): 87.5%
- cell count (WM1745): 86.6%
- cell count (WM3526): 80.9%
- cell count (WM3619): 85.3%
- cell count (WM451Lu): 100%

Compound: CCN(CC)CCNC(=O)c1c(C)[nH]c(/C=C2\C(=O)Nc3ccc(F)cc32)c1C [sunitinib] + Nc1cccc2c1CN(C1CCC(=O)NC1=O)C2=O [lenalidomide] (first compound 0.4 µM, partner dose 1 µM)
- cell count (WM115): 108%
- cell count (WM1716): 115%
- cell count (WM1745): 75.9%
- cell count (WM3526): 92.7%
- cell count (WM3619): 111%
- cell count (WM451Lu): 105%

Compound: COc1cc([C@@H]2c3cc4c(cc3[C@@H](O[C@@H]3O[C@@H]5CO[C@@H](C)O[C@H]5[C@H](O)[C@H]3O)[C@H]3COC(=O)[C@H]23)OCO4)cc(OC)c1O [etoposide] + COc1ccc2c(c1)CCC1C2CCC2(C)C(NCCCCCCN3C(=O)C=CC3=O)CCC12 [U73122] (first compound 0.02 µM, partner dose 0.4 µM)
- cell count (WM115): 90.1%
- cell count (WM1716): 88%
- cell count (WM1745): 84.5%
- cell count (WM3526): 96.6%
- cell count (WM3619): 85.7%
- cell count (WM451Lu): 101%

Compound: C[C@]1(O)C[C@@H](c2nc(-c3ccc4ccc(-c5ccccc5)nc4c3)c3c(N)nccn32)C1 + CN(c1ncccc1CNc1nc(Nc2ccc3c(c2)CC(=O)N3)ncc1C(F)(F)F)S(C)(=O)=O [PF562271] (first compound 0.4 µM, partner dose 0.08 µM)
- cell count (WM115): 69.7%
- cell count (WM1716): 67.5%
- cell count (WM1745): 58.6%
- cell count (WM3526): 65.3%
- cell count (WM3619): 95.6%
- cell count (WM451Lu): 84.7%

Compound: Cn1cnc2c(F)c(Nc3ccc(Br)cc3Cl)c(C(=O)NOCCO)cc21 [selumetinib] + O=c1cc(-c2cccc3c2Sc2ccccc2S3)oc(N2CCOCC2)c1 [KU55933] (first compound 0.015 µM, partner dose 1 µM)
- cell count (WM115): 85.4%
- cell count (WM1716): 114%
- cell count (WM1745): 102%
- cell count (WM3526): 68%
- cell count (WM3619): 75.7%
- cell count (WM451Lu): 117%

Compound: CCN(CC)CCNC(=O)c1c(C)[nH]c(/C=C2\C(=O)Nc3ccc(F)cc32)c1C [sunitinib] + Cc1ccc(NC(=O)c2cccc(N(C)C)c2)cc1NC(=O)c1ccc(O)cc1 [ZM336372] (first compound 0.4 µM, partner dose 2 µM)
- cell count (WM115): 96.6%
- cell count (WM1716): 128%
- cell count (WM1745): 85%
- cell count (WM3526): 90.8%
- cell count (WM3619): 90.7%
- cell count (WM451Lu): 108%

Compound: Cn1cnc2c(F)c(Nc3ccc(Br)cc3Cl)c(C(=O)NOCCO)cc21 [selumetinib] + C[C@@H](Oc1cc(-c2cnn(C3CCNCC3)c2)cnc1N)c1c(Cl)ccc(F)c1Cl [Crizotinib] (first compound 0.015 µM, partner dose 0.2 µM)
- cell count (WM115): 91.6%
- cell count (WM1716): 116%
- cell count (WM1745): 83.3%
- cell count (WM3526): 83.6%
- cell count (WM3619): 99.1%
- cell count (WM451Lu): 126%

Compound: COc1cc([C@@H]2c3cc4c(cc3[C@@H](O[C@@H]3O[C@@H]5CO[C@@H](C)O[C@H]5[C@H](O)[C@H]3O)[C@H]3COC(=O)[C@H]23)OCO4)cc(OC)c1O [etoposide] + C[C@@H](N)c1ccc(C(=O)Nc2ccnc3[nH]ccc23)cc1 [RKI983] (first compound 0.02 µM, partner dose 0.4 µM)
- cell count (WM115): 98.5%
- cell count (WM1716): 65%
- cell count (WM1745): 87.8%
- cell count (WM3526): 114%
- cell count (WM3619): 106%
- cell count (WM451Lu): 102%

Compound: Cn1cnc2c(F)c(Nc3ccc(Br)cc3Cl)c(C(=O)NOCCO)cc21 [selumetinib] + COc1ccc(Cl)c(Nc2nc3ccccc3nc2NS(=O)(=O)c2cccc(NC(=O)C(C)(C)N)c2)c1 [XL147] (first compound 0.015 µM, partner dose 0.8 µM)
- cell count (WM115): 96.2%
- cell count (WM1716): 102%
- cell count (WM1745): 86.1%
- cell count (WM3526): 82%
- cell count (WM3619): 74.4%
- cell count (WM451Lu): 95.2%

Compound: CCN(CC)CCNC(=O)c1c(C)[nH]c(/C=C2\C(=O)Nc3ccc(F)cc32)c1C [sunitinib] + COc1ccc2c(c1)CCC1C2CCC2(C)C(NCCCCCCN3C(=O)C=CC3=O)CCC12 [U73122] (first compound 0.4 µM, partner dose 0.4 µM)
- cell count (WM115): 103%
- cell count (WM1716): 127%
- cell count (WM1745): 70.8%
- cell count (WM3526): 84%
- cell count (WM3619): 132%
- cell count (WM451Lu): 86%

Compound: Cn1cnc2c(F)c(Nc3ccc(Br)cc3Cl)c(C(=O)NOCCO)cc21 [selumetinib] + O=C(O)[C@@H]1[O][Sb](=[O])([O][Sb]2(=[O])[O][C@H]([C@H](O)CO)[C@H](O)[C@H](C(=O)O)[O]2)[O][C@H]([C@H](O)CO)[C@@H]1O [stibogluconate] (first compound 0.015 µM, partner dose 2 µM)
- cell count (WM115): 87.4%
- cell count (WM1716): 110%
- cell count (WM1745): 90.1%
- cell count (WM3526): 61.9%
- cell count (WM3619): 57.2%
- cell count (WM451Lu): 96%

Compound: Cn1cnc2c(F)c(Nc3ccc(Br)cc3Cl)c(C(=O)NOCCO)cc21 [selumetinib] + CN(NC(=O)CC(=O)NN(C)C(=S)c1ccccc1)C(=S)c1ccccc1 [STA4783] (first compound 0.015 µM, partner dose 0.006 µM)
- cell count (WM115): 79.5%
- cell count (WM1716): 87.4%
- cell count (WM1745): 36.1%
- cell count (WM3526): 79%
- cell count (WM3619): 52.8%
- cell count (WM451Lu): 121%

Compound: C[C@]1(O)C[C@@H](c2nc(-c3ccc4ccc(-c5ccccc5)nc4c3)c3c(N)nccn32)C1 + CO[C@H]1C[C@@H]2CC[C@@H](C)[C@@](O)(O2)C(=O)C(=O)N2CCCC[C@H]2C(=O)O[C@H]([C@H](C)C[C@@H]2CC[C@@H](OCCO)[C@H](OC)C2)CC(=O)[C@H](C)/C=C(\C)[C@@H](O)[C@@H](OC)C(=O)[C@H](C)C[C@H](C)/C=C/C=C/C=C/1C [everolimus] (first compound 0.4 µM, partner dose 0.02 µM)
- cell count (WM115): 88.6%
- cell count (WM1716): 79.2%
- cell count (WM1745): 67.9%
- cell count (WM3526): 43.9%
- cell count (WM3619): 47.4%
- cell count (WM451Lu): 72.8%

From the supplement of paper PMC4604168 (melanoma cell lines)
